The supplement of paper PMC11417369
± gives the standard deviation of the averaged measurements. The list shows a part of the results.

These sequences were tested on PfAP2-I AP2 domain 3 (GST-tagged) (assay: gcPBM binding intensity (ln(normalized median fluorescence intensity)); higher = stronger DNA binding).
Method in brief: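 Alexa488 anti-GST antibody, scanned at 488 nm, detected GST-tagged P. falciparum DNA-binding domains that had been expressed in E. coli and incubated for 1 h on an Agilent 4 × 180k array. The array carried primer-extended double-stranded 36-bp intergenic genomic probes and negative controls. Binding intensity is the highest Masliner-normalised natural-log median intensity across replicate spots of either orientation of each probe.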

In order of falling “gcPBM binding intensity (ln)” value:
1. TATGAACTTTTGGGGGTGCCTTAAAATGTATATTCT  11.2 ± 0.53
2. AAATATTTCTGCAAGGTGCACTTTATAAATCTTTGA  10.7 ± 0.59
3. TTATGAATACTTCAAGTGCATTTATTTTATATGACA  10.1 ± 0.48
4. CACAGACACGGACACACACACATATATATATATATA [CACACA_site5248]  9.57 ± 0.49
5. AATATGGGCATACATGTGCACTTTTTCCCGTGGTTT  9.56 ± 0.49
6. TTATTTTTTTTTAGAGCACACATTTTTAATAAGGTA [CACACA_site2133]  9.54 ± 0.2
7. ATATATATATAAAGCAGTACACACATTTATTTTAGA [XGTACX_site7226]  9.24 ± 0.23
8. ATACACACATATATGTGTACATATACATATATATAT [XGTACX_site6744]  9.09 ± 0.071
9. AACATCAAAATATGCACACAAACAATTAGCGGTAGT [CACACA_site2521]  8.84 ± 0.6
10. AATAAATGGAAAAGGTGTACACAAAAAAAAGGGAAA [XGTACX_site4956]  8.66 ± 0.7
11. AAAAAAAAAAAAAAAACATGCAGTTAGTGGTTTTTT [TGCATGCA_site243]  8.62 ± 0.45
12. ATGTATATTTTTATGTGTACGTAATAAAACATAATA [XGTACX_site7777]  8.33 ± 0.27
13. ATATTCTAAATAAAGGGTACACAAAAATAATTAAAG [XGTACX_site5529]  8.29 ± 0.55
14. GAAGGAAATAAATCAACACACATATATTATATATAT [CACACA_site2188]  8.27 ± 0.42
15. GAAATGGGTAAACATACACACACACCGATATATATA [CACACA_site8610]  8.26 ± 0.71
16. TAACAATTATGCTGGTGTACGTTTGAAATTGGGTAT [XGTACX_site6846]  8.2 ± 0.42
17. CTTATATTTGGACACACACACAATAAAATGAAAAAA [CACACA_site6614]  8.17 ± 0.35
18. TACACAAGAAAATTCACACACACACCGATATATATA [CACACA_site6008]  8.17 ± 0.67
19. TTTTGTATATTATATGTACACACAATAAGTTAATAT [CACACA_site8207]  8.05 ± 0.34
20. TTATATGCATATTTTTGTACACAACATTGTTGTATA [XGTACX_site8707]  8.02 ± 0.6
21. TTTTGTTAACATATAGAAAAGAACAAAGTTAAAAAG [XGTACX_negctrl_site462]  8 ± 0.61
22. TGTACAAATATGTACACACACACATATTTATTTATA [CACACA_site6419]  8 ± 0.3
23. AAATATGTCAAATATACACACATAATAAATATAATA [CACACA_site2310]  7.97 ± 0.12
24. ACGAAAAGATATATATGTACATATATTAAAAAAAAA [XGTACX_site1517]  7.92 ± 0.56
25. TGTATTTATTAATGTACACACATGCGTATGTTCGTT [CACACA_site5892]  7.92 ± 0.57
26. ATATTTTATTTTTAAAGTACAAAAGAAAAGAATAAT [XGTACX_site8247]  7.91 ± 0.49
27. AAAAAACAAAAAAATACACACATAAAAAGGTTTTAG [CACACA_site3584]  7.86 ± 0.61
28. ATAATATGAAGAAGCACACTCAATTAAATACAGATA [CACACA_site4690]  7.85 ± 0.55
29. TCCCAATTTATTATGTGTACTTATTATATACATATA [XGTACX_site4033]  7.85 ± 0.38
30. ATACTATAATAATACACACTCATTAGATATATAAAG [CACACA_site7787]  7.83 ± 0.51
31. GATTTACATTTTGATGAAAATAATAAAATGTGGAAA [TGCATGCA_negctrl_site409]  7.83 ± 0.82
32. AACAAAATAGGGAACACACACATGTCGATATATAAA [CACACA_site7265]  7.83 ± 0.47
33. TATTTGTAATATTATACACACATTATGTATTACAAA [CACACA_site3386]  7.83 ± 0.53
34. TATATAATATATTTATGTACGTATTTAAAAATTTAT [XGTACX_site160]  7.79 ± 0.22
35. TATGTATAAAAATAATGTACAAAATATATTATATGT [XGTACX_site2794]  7.77 ± 0.55
36. TTAATTAAATATAGGGGTACATATTATATATGTTTT [XGTACX_site3677]  7.76 ± 0.42
37. TATCAAAGTAGAAGAGATCGATGTCATATTGTGATG [GTGCAC_negctrl_site42]  7.73 ± 0.75
38. CATAAATATTTGTGTTGTACAAATATATATATTTAT [XGTACX_site7363]  7.7 ± 0.48
39. TAAACATAACAAAGGAGTACAAAACTTGATCAGTTC [XGTACX_site3114]  7.69 ± 0.64
40. ATTGTGGATATTCTTACACACAAATTTATATATAAA [CACACA_site2601]  7.62 ± 0.61
41. AAGAAATTTATTTATTGTACAATATATAATTTGTTT [XGTACX_site2478]  7.59 ± 0.38
42. AAAAATTTCTATTTTTGTACTTACTTTTTAGTAATA [XGTACX_site5236]  7.54 ± 0.49
43. AAAAAAAAAGACAAAAGTACAAAGGTTCATAATTTA [XGTACX_site3978]  7.52 ± 0.64
44. AAATCTTCATAATAAAGTACTTAACTCTTGGTGTTA [XGTACX_site6112]  7.43 ± 0.28
45. TTATAAGATGATTATAAAATCAAATTCATTCTTTTA [CACACA_negctrl_site1338]  7.13 ± 0.42
